Laboratory results as given in PubChem BioAssay AID463173 (ICCB-Longwood Screening Facility, Harvard Medical School, 2010).
Out of some 52,000 compounds screened, about 4,300 (8.3%) were called active. Rule as the data show it: active = survival mostly below about 52% (no sharp cut-off); inactive = mostly above about 56%. The list shows a part of the results.

What follows are compounds tested on DeltatarO mutant (assay: S. aureus survival, RN4220 and DeltatarO strains – OD600, teichoic acid synthesis inhibitors, primary screen (AID 463173)). Conditions: S. aureus RN4220 wild type/DeltatarO growth, OD600, 18 h, stronger effect = lower value, screened at 18.75 µg/mL (by protocol).

SMILES | survival
O=C(CCNS(=O)(=O)c1ccc2c(c1)CCN2C(=O)C1CC1)N1CCN(c2ccccc2F)CC1 | inactive: 89%
CCOc1ccc(S(=O)(=O)N2CCN(c3ccc(Cl)c(Cl)c3)CC2)c2ccccc12 | inactive: 168%
CN(C)c1ccc(C(CNS(=O)(=O)c2ccc(Br)cc2)N2CCCC2)cc1 (stereo not given) | inactive: 72%
COc1cc(OC)cc(C(=O)Nc2ncn[nH]2)c1 | inactive: 80%
CCN=C1SC(CC(=O)Nc2ccccc2)C(=O)N1CC (stereo not given) | inactive: 56%
COc1ccc(Cl)cc1NC(=O)CSc1ccc(-c2sc(C)nc2C)nn1 | inactive: 105%
CC(C)Cc1nn2c(=O)cc(COC(=O)c3ccc4c(c3)OCO4)nc2s1 | inactive: 73%
O=C(CNCCCN1CCOCC1)Nc1ccc(OC(F)(F)F)cc1 | inactive: 99%
CCOC(=O)c1cc2c(=O)n3ccccc3nc2n(CCCOC)c1=NC(=O)C(C)(C)Oc1ccc(Cl)cc1 | inactive: 53%
CC(C)N(Cc1ccccc1)C(=O)CN1C(=O)COc2ccc(S(=O)(=O)NC3CCCC3)cc21 | inactive: 93%
Cc1cc(C)cc(NC(=O)CCc2nnc3n(CC(C)C)c(=O)c4ccccc4n23)c1 | inactive: 89%
CC(C)NC(=O)C1CCCCC1C(=O)O (stereo not given) | inactive: 75%
CCN(C(=O)CSc1nc2ccccc2n1CC(=O)Nc1ccccc1C)c1ccccc1 | active: -5%
COc1cc(CNc2ccc3[nH]c(=O)[nH]c3c2)ccc1OCc1ccccc1F | inactive: 85%
COc1ccc(-n2ccn(Cc3ccccc3Cl)c(=O)c2=O)cc1OC | inactive: 61%
COc1ccccc1CNC(=O)Cc1csc2nc(-c3ccc(Cl)cc3)cn12 | inactive: 83%
CCOc1cc(CNC(=O)c2ccc(C)c(NC(=O)c3nsc4ccccc34)c2)ccc1OC | inactive: 72%
COc1ccc(CNC(=O)CSc2nc3ccsc3c(=O)n2Cc2ccccc2Cl)cc1 | inactive: 42%
CCc1ccc(N2C(=O)CC(c3cc(OC)ccc3OC)C3=C2COC3=O)cc1 (stereo not given) | inactive: 68%
O=C(Nc1ccc2oc(-c3cccnc3)nc2c1)c1ccc(-c2ccc(Cl)cc2)o1 | inactive: 73%
Cc1cc2oc(C(=O)Nc3sc4c(c3C(=O)NCC3CCCO3)CCC4)cc(=O)c2cc1C (stereo not given) | active: 36%
O=C(CSc1nnc(-c2ccc(NS(=O)(=O)c3ccccc3)cc2)o1)NCC1CCCO1 (stereo not given) | inactive: 73%
Cc1cccc(NC(=S)N(CCN(C)C)Cc2cc3cc4c(cc3[nH]c2=O)OCO4)c1 | inactive: 80%

SMILES | survival
Cc1ccc(NC(=O)Cn2ncn3c(cc4ccccc43)c2=O)c(C)c1 | active: 45%
CCOc1ccc(C2CC(=O)n3nc(-c4ccc(C)cc4)nc3S2)cc1 (stereo not given) | inactive: 70%
O=c1[nH]c(C2CCCNC2)nc2c1nnn2Cc1ccccc1 (stereo not given) | inactive: 98%
CCn1c(=O)c2cc(C(=O)NC3CCCCCC3)sc2c2ccccc21 | inactive: 56%
CCOC(=O)c1sc(NC(=O)c2nc3ncccn3n2)c(C(=O)OC)c1C | inactive: 51%
O=S(=O)(NCc1ccccc1)c1ccc(-c2cnc(C3CC3)o2)cc1 | inactive: 71%
CC(NC(=O)c1ccc2c(c1)N(Cc1ccc(Cl)cc1)C(=O)c1ccccc1S2(=O)=O)c1ccccc1 (stereo not given) | inactive: 90%
CCOc1cc2sc(N3CCC(C(=O)Nc4ccc(C)cc4)CC3)nc2cc1Br | inactive: 83%
CCCCCn1c(=N)c(S(=O)(=O)c2ccccc2)cc2c(=O)n3ccccc3nc21 | inactive: 85%
CCOc1ccc(CCNC(=O)Cn2nc(CC)n3c(cc4sc(CC)cc43)c2=O)cc1OCC | inactive: 76%
Cc1oc2ncn(CC(C)C)c(=O)c2c1C(=O)N1CCN(c2ccc(F)cc2)CC1 | inactive: 90%
COc1ccccc1CNc1ccc(-c2nc(C)no2)cc1[N+](=O)[O-] | inactive: 68%
O=C(c1ccc(C(F)(F)F)cc1)N1CCC(c2nc(-c3ccc(S(=O)(=O)N4CCCC4)cc3)no2)CC1 | inactive: 88%
COc1nc(-c2ccc(C)cc2)ccc1-c1noc(-c2ccccc2Br)n1 | active: 19%
COc1cc(OC)c(NC(=O)CCCn2nc(C)c3sc4ccccc4c3c2=O)cc1Cl | inactive: 61%
COC(=O)c1ccc(Cl)cc1NC(=O)N1CCCn2nc(C)cc21 | inactive: 94%
COc1ccc(C(c2nnnn2C2CCCCC2)N2CCC(C)CC2)cc1OC (stereo not given) | inactive: 97%
O=c1c2cccnc2n(Cc2ccccc2F)c(=O)n1Cc1ccccc1Cl | inactive: 62%
Cc1ccc(C)c(N2CCN(C(=O)CN3CCSc4ccc(S(=O)(=O)N(C)C)cc43)CC2)c1 | inactive: 102%
COc1ccc(-c2nc3sc(-c4ccc(OC)cc4)nc3s2)cc1 | inactive: 95%
Cc1ccc(C(c2nnnn2Cc2ccccc2)N2CCC(C)CC2)cc1 (stereo not given) | inactive: 70%
CCOC(=O)c1c(C)[nH]c(C)c1S(=O)(=O)N1CCC(C(=O)N2CCN(c3ccc(Cl)cc3)CC2)CC1 | inactive: 98%
COc1ccc(-n2c(=O)c3c4c(sc3n(Cc3ccccc3)c2=O)CN(C(C)=O)CC4)cc1OC | inactive: 67%

SMILES | survival
COc1ccccc1NC(=O)c1ccc2c(Cl)c3c(nc2c1)CCCC3 | active: 15%
CC1=C(c2ccc(C)c(C)c2)S(=O)(=O)N=C1N1CCC(C(=O)NCCc2ccc(Cl)cc2)CC1 | inactive: 101%
CCOc1ccc(NC(=O)N2CC=C(c3c[nH]c4ccccc34)CC2)cc1 | inactive: 83%
Cc1ccc(C)c(NC(=O)Cn2cc(C(=O)C3CCCCC3)c3ccccc32)c1 | inactive: 75%
Cc1ccc2[nH]c3c(=O)n(CC(=O)N(C)c4cc(Cl)ccc4C)ncc3c2c1 | inactive: 89%
O=C(c1ccc2c(c1)N(Cc1cccc(Cl)c1)C(=O)c1ccccc1S2(=O)=O)N1CCCCC1 | inactive: 92%
COc1cccc2c1Oc1ncccc1N(C(=O)CCC(=O)NCc1ccc(N(C)C)cc1)C2 | inactive: 70%
COc1cccc(NC(=O)c2oc3ccccc3c2NC(=O)c2ccc(C(F)(F)F)cc2)c1 | inactive: 60%
O=C(CN1CCCN(Cc2ccc(Cl)cc2)S1(=O)=O)Nc1ccccc1F | inactive: 66%
Cc1nc(N2CCCC2)c2c(C(=O)Nc3cccc(Cl)c3C)c(C)oc2n1 | inactive: 63%
COc1ccc(NC(=O)CSc2nc3nc(C)c(Cc4ccc(C)cc4)c(C)n3n2)cc1OC | inactive: 67%
COc1ccc(Cl)cc1-n1nnc(-c2nc(-c3ccc4c(c3)OCO4)no2)c1C | inactive: 99%
CCCNC(=O)C1CCC(Cn2c(=O)c3sccc3n(Cc3ccccc3C)c2=O)CC1 (stereo not given) | inactive: 78%
Cc1nc(SCC(=O)N2c3ccccc3CCc3ccccc32)n[nH]1 | inactive: 102%
COc1cc2[nH]c(=O)n(Cc3ccc(C(=O)NCc4ccccc4)cc3)c(=O)c2cc1OC | inactive: 78%
COc1cc(Cl)c(C)cc1NC(=O)c1cc2ccc3cccnc3c2[nH]1 | inactive: 71%
O=C(c1cc(=O)c2cc(Cl)ccc2o1)N(Cc1ccccc1)C1CCS(=O)(=O)C1 (stereo not given) | inactive: 51%
CC(=O)OCc1cnc(C)c2oc(=O)c(C(=O)Nc3cccc(F)c3)cc12 | inactive: 109%
CCCCN1CC(c2nc3ccccc3n2CCCCOc2ccc(C)cc2C)CC1=O (stereo not given) | active: 13%
Cc1ccc(-n2ncc3c(NCCCN4CCOCC4)ncnc32)cc1Cl | inactive: 75%
O=C(NCCCc1nc2ccccc2n1Cc1cccc(Cl)c1)c1ccco1 | active: 46%
Cn1ccc(-c2ccccc2)n1 | inactive: 80%
Cc1cccc(C)c1NC(=O)c1csc2c1CCCC2 | inactive: 90%

SMILES | survival
COc1ccccc1NC(=O)C(=O)c1cc(C)n(-c2ccccc2F)c1C | inactive: 93%
CCc1ccc(NC(=O)c2cc(S(=O)(=O)N3CCCCCC3)ccc2F)cc1 | inactive: 99%
COc1ccc2c(c1)CC(NC(=O)Nc1cc(Cl)ccc1OC)CO2 (stereo not given) | inactive: 92%
COc1cccc(C(=O)Nc2ccc(Cl)c(-c3nc4ccccc4[nH]3)c2)c1 | inactive: 68%
CSc1nc(C)cc(Nc2c(C)cc(C)cc2C)n1 | inactive: 59%
CCc1ccc(OCCCSc2nc(-c3ccc(C(C)(C)C)cc3)nc3cc(=O)[nH]n23)cc1 | inactive: 80%
O=C(O)CSc1nnc(-c2ccccc2)o1 | inactive: 69%
COC(=O)c1ccc(NS(=O)(=O)c2ccc(-n3cccn3)cc2)cc1 | inactive: 87%
CC(=O)c1ccc(N2CCN(S(=O)(=O)c3ccc4c(c3)CC(C)N4C(=O)C3CCC3)CC2)cc1 (stereo not given) | inactive: 80%
COc1cccc(CNC(=O)C2CCN(c3nc4ccc(Cl)cc4[nH]3)CC2)c1 | inactive: 101%
CCCCc1cc(=O)oc2cc(C)c3c(C)coc3c12 | inactive: 78%
COC(=O)C1C(c2ccccc2)C(C(=O)OCc2ccco2)C1c1ccccc1 (stereo not given) | inactive: 97%
O=C(NCCn1cc(SCc2ccc(F)cc2)c2ccccc21)c1c(F)cccc1F | active: 53%
CCOC(=O)c1cccc(NC(=O)c2ccc3c(c2)nnn3C2CCCC2)c1 | inactive: 73%
Cc1ccc(Cn2c(C(=O)Nc3cccc(Cl)c3)cc3sccc32)cc1 | inactive: 80%
Cn1nnnc1SCCNCc1ccccc1OCc1ccccc1F | inactive: 140%
Cn1cnc(S(=O)(=O)N2CCCC(C(=O)Nc3ccc(F)cc3Cl)C2)c1 (stereo not given) | inactive: 70%
CCOc1ccc(NC(=O)c2cc3c(-c4ccccc4F)nn(C)c3s2)cc1 | inactive: 109%
O=C(CCSCc1cnn(-c2ccccc2)c1-n1cccc1)NCc1ccccc1F | inactive: 61%
S=c1[nH]c2ccccc2n1CCOc1ccccc1 | inactive: 110%
Cn1c(SCc2ccc(F)cc2)nc2c([nH]c3ccccc32)c1=O | inactive: 88%
